Laboratory results from PubChem BioAssay AID686979 (National Center for Advancing Translational Sciences (NCATS), 2013).
Among all 420,000 compounds or so, about 50,000 (12%) were called active. The inconclusive results got no clear call from the source; some entries with a clear call stand among them for comparison. Calls follow the shape of the dose curve; as a rule, active = well fitted inhibition curve with a large enough effect; inconclusive = small, poorly fitted or top-dose-only effect; inactive = flat fitted curve, though single readings scatter. No potency is given beside an inconclusive call; the fits are too rough.

Test: qHTS for Inhibitors of human tyrosyl-DNA phosphodiesterase 1 (TDP1): qHTS in cells in presence of CPT; also: nearly all actives have a fitted effect of over 55% in size
Conditions: chicken DT40 Tdp1-/-;hTDP1 cells + 20 nM CPT, ATP luminescence, 48 h; activity change, negative = growth inhibition: at 46.2 µM (top of the series) unless noted
Outline: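 Chicken DT40 Tdp1-/- cells complemented with human TDP1, 400 cells/well, exposed to compounds plus 20 nM camptothecin for at least 48 h at 37 C; viability read as ATP content by CellTiter-Glo luminescence.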
% is scaled to controls: 0 for no effect and ±100 for the full control effect; potency is read from the fitted curve at half-maximal effect; tags tell the direction and shape of the fitted curve.

Structure (SMILES)	Potency	activity change, negative = growth inhibition
CCCC(=O)Nc1ccc(NC(=O)c2sc3ccccc3c2Cl)cc1	inconclusive [inhibitor, full curve, poor fit]	
COc1ccc(NC(=O)NC[C@@H]2CC[C@@H](Cc3ccc(-c4ccccc4)cc3)O2)cc1	inconclusive [inhibitor, single point]	
Cc1ccc(S(=O)(=O)N2CCN(CC(=O)N/N=C\C(Cl)=C\c3ccccc3)CC2)cc1	inconclusive [inhibitor, single point]	
CCCN1CCN(C(=O)c2ccc(Sc3ccc(C)cc3)c(NC(C)=O)c2)CC1	inconclusive [inhibitor, partial curve, poor fit]	
COC1(NS(=O)(=O)c2ccc(Br)cc2)C(C)=CC(=O)C=C1C	active: 13 µM	
CC(C)C(NC(=O)c1ccccc1)C(=O)OCC(=O)N1CCN(c2ccccc2)CC1 (stereo unspecified)		inactive: 7.31%
N#Cc1cccc(-c2nccc(NCc3cccnc3)n2)c1	inconclusive [inhibitor, single point]	
COc1ccc(NC(=O)c2ccc(NC3CC(=O)N(c4ccc(C)cc4C)C3=O)cc2)cc1 (stereo unspecified)	inconclusive [inhibitor, single point]	
O=C(NCc1ccccc1Cl)C1CCCN1C(=O)Nc1ccccc1 (stereo unspecified)		inactive: -15.6%
COc1ccc(C(=O)C2CCCN(C(=O)c3noc4c3CCCC4)C2)cc1F (stereo unspecified)	inconclusive [inhibitor, single point]	
CCc1cc(=O)oc2cc(C)c(CN3CCCCC3)c(O)c12		inactive: -18%
CCc1ccc2nc(N(Cc3cccnc3)C(=O)c3cccs3)sc2c1	inconclusive [inhibitor, single point]	
COc1ccc(N2CCN(C(=O)c3cccc(S(=O)(=O)N4CCCc5ccccc54)c3)CC2)cc1	inconclusive [inhibitor, single point]	
CCn1cc(CN2CCCC(C(=O)c3ccc(-c4ccccc4)c(F)c3)C2)cn1 (stereo unspecified)	active: 18.4 µM	
COCc1cccc(-c2csc(C(C)(O)c3ccc(OC)cc3)n2)c1 (stereo unspecified)	inconclusive [inhibitor, partial curve, poor fit]	
Cc1cc(C=C2C(=O)c3ccccc3C2=O)c(C)n1-c1cccc(C(=O)O)c1	inconclusive [inhibitor, single point]	
COCCn1c(SCC(=O)c2ccccc2)nc2cc(C(=O)NC3CCCC3)ccc2c1=O		inactive: -0.774%
CCNC(=O)CON=C1c2ccccc2-c2ccccc21	inconclusive [inhibitor, single point]	
O=[N+]([O-])c1nn(-c2ccc3c(c2)OCCO3)n(O)c1=NCc1ccc(F)cc1	inconclusive [inhibitor, single point]	
O=C(c1ccncc1)N1CCC[C@@]2(CCN(c3cccc(-c4ccccc4)c3)C2)C1	inconclusive [inhibitor, single point]	
COC(=O)c1cc(=O)n(Cc2cccs2)c(=Nc2ccc(F)cc2)s1	inconclusive [inhibitor, single point]	
CC(=O)NCCC(=O)Nc1cc(S(=O)(=O)N2CCCCC2)ccc1N1CCCCC1	inconclusive [inhibitor, single point]	

Structure (SMILES)	Potency	activity change, negative = growth inhibition
CC(=O)c1cccc(NC(=S)NNC(=O)c2ccc(C)c([N+](=O)[O-])c2)c1		inactive: -8.14%
CCOC(=O)CSC1=Nc2ccccc2C2=NC(CCC(=O)NCc3ccccc3)C(=O)N12 (stereo unspecified)	inconclusive [inhibitor, single point]	
CC(C)c1ccc(NC(=O)C(c2ccc3c(c2)OCO3)N2CCN(C(=O)c3ccco3)CC2)cc1 (stereo unspecified)	inconclusive [inhibitor, single point]	
CCOC(=O)c1c(C)[nH]c(NC(=O)NNC(=O)c2ccc(OC)cc2)c1C		inactive: -10.2%
COc1ccc(NC(=O)CN(c2cccc(C)c2C)S(=O)(=O)c2ccccc2)cc1OC	active: 23.1 µM	
CC1CCCCN1C(=O)CN1CCC(c2nc3ccc(Cl)cc3[nH]2)CC1 (stereo unspecified)	inconclusive [inhibitor, partial curve]	
CCc1ccc(S(=O)(=O)NCCc2csc(-c3ccccc3)n2)s1	inconclusive [inhibitor, single point]	
O=C(CCn1nc(-c2ccccc2)ccc1=O)N1CCOCC1		inactive: -6.69%
COC(=O)C1=C(C(=O)OC)[C@@H]2N(Cc3ccccc3)c3ccccc3[C@@]23C[C@@H](C(=O)OC)N=C3N1		inactive: -0.794%
O=C(NCc1ccccc1)c1cc(C2COCCN2C(=O)C/C=C/c2ccccc2)on1 (stereo unspecified)	inconclusive [inhibitor, single point]	
O=C(Nc1nnc(Cc2ccccc2)s1)C1CCN(C(=O)c2cccs2)CC1	inconclusive [inhibitor, single point]	
COc1ccc(CCNC(=O)CN(C)S(=O)(=O)c2cccs2)cc1		inactive: 3.18%
COc1cccc(C(c2nnnn2C(C)(C)C)N2CCN(C/C=C/c3ccccc3)CC2)c1OC (stereo unspecified)	inconclusive [inhibitor, single point]	
Cc1cc2c(cc1C)C(c1cccc(OC(C)C)c1)CC(=O)N2 (stereo unspecified)	active: 16.4 µM	
OCC1(Cc2cccc(Cl)c2)CCCN(Cc2sc(N3CCCC3)nc2Cl)C1 (stereo unspecified)	active: 20.6 µM	
COc1ccc(OC)c(C(=O)Cn2nnc(-c3ccc(N4CCOCC4)cc3)n2)c1		inactive: -8.31%
COc1ccc(C(=O)N2CCN(C(=O)COc3ccc(Br)cc3)CC2)cc1OC	inconclusive [inhibitor, single point]	
N=c1oc2ccccc2cc1C(=O)NCc1ccccc1	inconclusive [inhibitor, partial curve]	
CCOC(=O)c1[nH]c(C)c(CN(CCc2ccccc2)C(=O)CCC(=O)O)c1C	inconclusive [inhibitor, single point]	
CC(=O)Nc1ccc(C(=O)N2c3ccccc3N=C(c3ccc4c(c3)OCO4)C2C(=O)NCc2ccccc2)cc1 (stereo unspecified)	inconclusive [inhibitor, partial curve]	
Cc1onc(-c2c(Cl)cccc2Cl)c1C(=O)N1CCN(c2ccccc2)CC1	inconclusive [inhibitor, single point]	
CC(C)(C)c1ccc(CN2CCN(C(c3ccccc3)c3ccc(Cl)cc3)CC2)cc1 (stereo unspecified)	active: 13.3 µM	

Structure (SMILES)	Potency	activity change, negative = growth inhibition
COc1cc2c(=O)c(S(=O)(=O)c3ccc(C)cc3)cn(Cc3cccc(C)c3)c2cc1OC	active: 16.4 µM	
C=CCNC(=O)C1CCN(S(=O)(=O)c2ccc(Br)cc2)CC1		inconclusive: -33.2% [inhibitor]
COc1cccc(NC(=O)c2cc(-c3cccnc3)nc3c(Cl)cccc23)c1	inconclusive [inhibitor, partial curve, poor fit]	
O=C(/C=C/c1cccc([N+](=O)[O-])c1)Nc1ccccc1N1CCOCC1	inconclusive [inhibitor, single point]	
CN(Cc1ccccc1)C(=O)C1CCC(CNS(=O)(=O)c2cccc3cccnc23)CC1 (stereo unspecified)	inconclusive [inhibitor, single point]	
CCOc1ccc(OCc2ccc(C(=O)Nc3cccnc3)cc2)cc1	inconclusive [inhibitor, partial curve]	
O=C(Cc1ccc(Cl)cc1)NCCS(=O)(=O)N1CCN(c2ccccc2)CC1	inconclusive [inhibitor, partial curve]	
Cc1cc(NC(=O)c2cccc(S(=O)(=O)Nc3cccc(C(=O)O)c3)c2)no1		inactive: 40.1%
Cc1ccc(-c2nn(-c3ccc(F)cc3)cc2C(=O)NC2CCC(O)CC2)cc1 (stereo unspecified)		inactive: -1.87%
O=c1cc(Cc2ccc([N+](=O)[O-])cc2)[nH]c(=O)[nH]1		inactive: -0.944%
O=S(=O)(NCC1CC1)c1cc(Cl)cc(Cl)c1		inactive: 12.8%
CSc1cccc(NC(=O)C2CCN(S(=O)(=O)c3ccc4[nH]c(=O)ccc4c3)CC2)c1		inactive: -15.7%
N=c1c(C(=O)NC2CCCC2)cc2c(=O)n3ccccc3nc2n1C1CCCC1	inconclusive [inhibitor, partial curve, poor fit]	
COc1ccc(CCn2c(=O)c3cccnc3n(Cc3ccc([N+](=O)[O-])cc3)c2=O)cc1OC	inconclusive [inhibitor, single point]	
CSc1ccc(Cn2c(C)c(C(=O)NCc3ccc4c(c3)OCO4)sc2=O)cc1	inconclusive [inhibitor, single point]	
COc1ccc2oc(=O)c(C(=O)N3CCN(c4ccccc4F)CC3)cc2c1		inactive: -26.6%
CN1CCc2c(sc3c2C(=O)NC(c2ccc(-c4cccc(Cl)c4)o2)N3)C1 (stereo unspecified)	inconclusive [inhibitor, single point]	
C[C@H](CO)N1C[C@H](C)[C@@H](CN(C)S(C)(=O)=O)Oc2c(NC(=O)C3CCCCC3)cccc2C1=O		inactive: -14.4%
CCCC(O)(c1ccc(OC)cc1)C(CN1CCOCC1)c1ccc(Cl)cc1 (stereo unspecified)	inconclusive [inhibitor, single point]	
CCOc1c(Br)cc(C(=O)Nc2cccc(S(=O)(=O)N3CCOCC3)c2)cc1OC	inconclusive [inhibitor, single point]	
CC1=C(C(=O)N(C(C)C)C(C)C)CC(CC(=O)NC2CCCC2)C(=O)N1CCC1=CCCCC1 (stereo unspecified)	inconclusive [inhibitor, single point]	
Cc1cccc(NC(=O)CN(C)S(=O)(=O)c2ccc(Br)cc2)n1	inconclusive [inhibitor, single point]	
